Reference: paper PMC4336329 (PLoS ONE, 2015)
Screen size: about 310,000 compounds; about 14,000 (4.5%) showed an effect of 50% or more. The effect is printed as a negative number. This is one part of the list.

Each compound was assayed against human ether-à-go-go-related gene (hERG) potassium channel (human, UniProt Q12809) (assay: primary screen, population patch clamp on CHO cells stably expressing hERG).
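Further: peak tail current of the secondary pulse compared with the same well before compound.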

human ether-à-go-go-related gene (hERG) potassium channel, sequence (Q12809 whole entry, looked up): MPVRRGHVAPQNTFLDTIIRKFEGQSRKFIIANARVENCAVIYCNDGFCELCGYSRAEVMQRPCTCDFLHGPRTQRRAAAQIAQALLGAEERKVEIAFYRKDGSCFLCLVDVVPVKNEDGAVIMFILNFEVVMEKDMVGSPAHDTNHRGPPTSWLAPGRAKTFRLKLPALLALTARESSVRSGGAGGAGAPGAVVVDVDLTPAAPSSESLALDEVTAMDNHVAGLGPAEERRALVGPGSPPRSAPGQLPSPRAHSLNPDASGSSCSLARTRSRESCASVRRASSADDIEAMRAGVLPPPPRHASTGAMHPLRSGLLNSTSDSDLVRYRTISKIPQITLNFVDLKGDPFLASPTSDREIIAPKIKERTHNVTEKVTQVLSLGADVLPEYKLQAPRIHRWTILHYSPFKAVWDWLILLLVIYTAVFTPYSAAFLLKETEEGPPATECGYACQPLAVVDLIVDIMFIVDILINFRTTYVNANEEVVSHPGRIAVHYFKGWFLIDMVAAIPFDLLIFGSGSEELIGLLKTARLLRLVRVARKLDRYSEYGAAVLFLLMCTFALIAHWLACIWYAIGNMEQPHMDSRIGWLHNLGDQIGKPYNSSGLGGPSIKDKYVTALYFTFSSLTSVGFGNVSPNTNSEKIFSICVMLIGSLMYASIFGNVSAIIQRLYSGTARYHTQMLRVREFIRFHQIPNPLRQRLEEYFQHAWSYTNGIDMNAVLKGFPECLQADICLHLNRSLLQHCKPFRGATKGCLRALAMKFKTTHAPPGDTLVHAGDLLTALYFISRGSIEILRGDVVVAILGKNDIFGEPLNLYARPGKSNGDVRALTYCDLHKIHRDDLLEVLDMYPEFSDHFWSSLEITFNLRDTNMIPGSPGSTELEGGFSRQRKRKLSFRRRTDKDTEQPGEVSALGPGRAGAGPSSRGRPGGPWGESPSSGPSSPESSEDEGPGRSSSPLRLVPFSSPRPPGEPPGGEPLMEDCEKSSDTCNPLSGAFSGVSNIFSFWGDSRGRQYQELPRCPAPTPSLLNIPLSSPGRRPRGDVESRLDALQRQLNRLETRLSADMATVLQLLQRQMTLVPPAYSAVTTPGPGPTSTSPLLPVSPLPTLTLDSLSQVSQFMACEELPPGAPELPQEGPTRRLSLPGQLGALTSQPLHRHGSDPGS

Structure (SMILES)	hERG current change (%, negative = inhibition) at 10uM
C=CCC1(O)C(=O)N2C(=C1C(=O)N1CCOCC1)c1ccccc1CC2(C)C (stereo not drawn)	0.705%
COc1ccc(Nc2nccc(-c3ccc(C#N)cc3)n2)cc1	1.36%
COC(=O)CNC(=O)c1cc(-c2ccncc2)nc2ccc(C)cc12	-2.87%
Cc1ccnc(NC(=O)C(Cc2ccccc2)NC(=O)c2ccccc2)c1 (stereo not drawn)	-0.154%
Cc1ccc(NC(=O)Cn2c(=O)oc3ccccc32)cc1C	18.3%
O=C(C1CC1)N1CCc2cc(Br)cc(S(=O)(=O)N3CCN(c4ccccn4)CC3)c21	-17.5%
O=C(O)c1ccc2c(c1)C(=O)N(Cc1ccco1)C2=O	24.2%
O=C(c1cccc(C(F)(F)F)c1)c1c[nH]c(C(=O)NCCCN2CCOCC2)c1	-33.6%
O=C(c1ccc([N+](=O)[O-])cc1)N(Cc1cccs1)C1CCS(=O)(=O)C1 (stereo not drawn)	-50%
COc1ccc(C(=O)NC(=S)Nc2cccnc2)cc1[N+](=O)[O-]	4.69%
CCc1ccc(NC2=NCC(c3ccccc3)S2)cc1 (stereo not drawn)	-17.5%
C/C(=N\N1CCN(c2ccccc2)CC1)c1ccccc1O	8.08%
COc1ccc(C2NCCc3[nH]cnc32)cc1 (stereo not drawn)	8.12%
N#C/C(C(=O)N1CCOCC1)=C1/SC(Cc2ccccc2Cl)C(=O)N1c1ccccc1 (stereo not drawn)	-23.1%
COc1ccc(S(=O)CC(=O)Nc2ccc(Cl)cc2Cl)cc1 (stereo not drawn)	-6.26%
O=C(CN1CCCC1)NN=C(c1ccccc1)c1ccccc1	-68.3%
COc1ccc(OC)c(C(=O)N/N=C/c2ccccn2)c1	8.66%
C[C@@H]1CC=C[C@H]2[C@H]1C(=O)N(Cc1ccccc1)[C@H]2c1ccoc1	3.54%
CCc1ccc(OCc2nnc(NC(=O)c3cccs3)s2)cc1	2.52%

Structure (SMILES)	hERG current change (%, negative = inhibition) at 10uM
CCCc1c(C(=O)Nc2ccc(F)cc2)cnn1-c1ccccc1	12.5%
Cc1cc(Nc2ccc(C(=O)O)cc2)n2nc(C)nc2n1	-1.96%
CC(C)OC(=O)/C(C#N)=C/c1cn(C)c2ccccc12	-0.828%
CCOC(=O)Cn1c(C)c(C#N)c2ccccc21	4.19%
COc1ccccc1Nc1nc(C)nc2c1oc1ccccc12.Cl	-8.48%
CN(CC1CCOCC1)C(=O)CC1C(=O)NCCN1Cc1cccc(F)c1 (stereo not drawn)	14.8%
O=C(OC(C(=O)NC1CCCC1)c1ccncc1)C1=Cc2ccccc2OC1 (stereo not drawn)	-2.88%
Cc1ccccc1CC(=O)N1CCCC(CCC(=O)N2CCN(c3ccccn3)CC2)C1 (stereo not drawn)	5.88%
O=C(c1cc2ccccc2oc1=O)N1CCN(c2ncccn2)CC1	8.16%
Cc1ccc([N+](=O)[O-])cc1N=Nc1c(C)[nH]n(C(N)=S)c1=O	19.4%
CC(=O)NCCNc1ccc([N+](=O)[O-])cc1C#N	21.4%
COc1ccc(-c2csc(/C(C#N)=C(\O)CSc3nccn3C)n2)cc1OC	-10%
O=C(CN1C(=O)c2ccccc2C1=O)NCC(=O)OCC(=O)c1cccc([N+](=O)[O-])c1	0.444%
O=C(CSC1CC(=O)N(c2ccc(C(=O)O)cc2)C1=O)Nc1ccc2ccccc2c1 (stereo not drawn)	15.8%
CCCCOc1cccc(-c2nnc(NC(=O)CSc3ccc(C)cc3)s2)c1	-6.23%
COC(=O)C1CCN(c2nc3ccccc3nc2C(C#N)C(=O)NCCc2ccccc2)CC1 (stereo not drawn)	3.84%
O=C(O)C1CCN(S(=O)(=O)c2cccs2)CC1	14.7%
COc1ccc(N(CC(=O)NC2CC3CCC2C3)S(=O)(=O)c2ccccc2)cc1Cl (stereo not drawn)	-19.4%
Cc1ccc(S(=O)(=O)N2CN(CC3CCCO3)c3nc4ccccc4nc32)c(C)c1 (stereo not drawn)	16.9%

Structure (SMILES)	hERG current change (%, negative = inhibition) at 10uM
Cc1ccc(C(=O)Nc2nc3ccccc3n3nnnc23)cc1	-20.6%
Cc1ccc(SCc2cc(=O)c3c(=O)n(-c4ccccc4)[nH]c3[nH]2)cc1	7.34%
CCc1ccccc1N1C(=O)C2CC=CCC2C1=O (stereo not drawn)	-6.41%
Cc1cccc(-c2cc(C(=O)Nc3sc(C)c(C)c3C(N)=O)c3ccccc3n2)c1	3.87%
Cc1cccc(C)c1Nc1c(-c2ccccc2O)nc2ncccn12	16.7%
CCc1ccccc1Oc1coc2cc(O)ccc2c1=O	-2.67%
CC(Sc1nnc(-c2ccco2)n1C)C(=O)N(C)C1CCCCC1 (stereo not drawn)	6.7%
COc1ccccc1-c1nc(C#N)c(NCc2ccc(F)cc2)o1	-9.48%
CCC1S/C(=N/N=C/c2ccco2)N(c2ccc(F)cc2)C1=O (stereo not drawn)	3.46%
O=C(c1csc2c1CCCCC2)N1CCN(c2ncccn2)CC1	-4.41%
COc1ccc(OC)c(N2Cc3cc(C)c(C)cc3C2)c1	1.91%
CCn1c(=O)c(=O)n(CC)c2cc(S(=O)(=O)Nc3cc(C)ccc3C)ccc21	-21.6%
NC(=O)/C(N=Nc1ccccc1)=N/Nc1ccccc1	4.74%
CCC1=NN(C(=O)c2ccc(C)cc2)C(O)(c2ccc(Br)cc2)C1 (stereo not drawn)	-10.7%
N=P(N1CCOCC1)(N1CCOCC1)C12CC3CC(CC(C3)C1)C2	14.7%
O=C(Nc1ccccc1)OCCNC(=O)c1ccccc1	-6.55%
CCS(=O)(=O)N1N=C(c2cccc(NS(C)(=O)=O)c2)CC1c1ccccc1 (stereo not drawn)	-16.9%
CN(C)C(=O)CSc1ccccc1C(=O)OCC(=O)NC1CC1	2.87%
NC(=O)CCn1c(C(=O)c2ccc(Cl)cc2)c2ccccc2[n+]1[O-]	-23.7%
